# Test results taken from paper PMC12136788.
# Some of the results follow.
# T1: UNK ZnF1-3 (human, UniProt Q9C0B0 31-174)
# T1 sequence: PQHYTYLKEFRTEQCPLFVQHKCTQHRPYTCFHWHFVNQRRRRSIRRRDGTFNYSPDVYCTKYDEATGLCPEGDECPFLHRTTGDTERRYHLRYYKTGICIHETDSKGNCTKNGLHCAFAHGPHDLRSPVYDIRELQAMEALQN
# B1: chr10:85910540:85910541:+_ENSG00000165678_ENST00000372134|perfect_dup|FALSE|FALSE (ssRNA)
# RNA: GGGAGUUCUACAGUCCGACGAUCUUCUGCACGUUUGAUUACUUUCUGAGUAUCAUACAGAAGGAACAUGCUGAAAAGAACUAAUCCACCAUACAUUGCCACUGAGUACAGAGUGGCACCAGCCACAGAGGUAGGGGGAAGAAACAACAGAGGAUUGAGCAUCA
# B2: chrX:69798090:69798091:-_ENSMUSG00000031343_ENSMUST00000055966|mus_mus|mus_mus_mus_hu_False|58_78 (ssRNA)
# RNA: GGGAGUUCUACAGUCCGACGAUCAAGUCCCCGGGUUCUUGUCGUCUUGAUUCCCCUUGGCUAGUGGUUCCAGGGAGAAUACUAAUCAGGAAAAGAAUCCCAAGGCUGGUCAUGUAACAGUGACUUGUUUGUGUGAUUAUCAUCCAACAGAGGAUUGAGCAUCA
# B3: chr10:36717261:36717262:+_ENSMUSG00000019777_ENSMUST00000019911|perfect_dup|FALSE|FALSE (ssRNA)
# RNA: GGGAGUUCUACAGUCCGACGAUCCUGUUUUAUCUUUUCCAUAUAUUCUGGAGUGUUCUGGUUUGUCAUGUUUGAAGGACUAAUAUGCAGUUUGAAGUCUGGUCCAAAAUACUCAAAGUAAUCAUUAUAUGGCAACUCAUUGGGCAACAGAGGAUUGAGCAUCA
# B4: chr2:9570881:9570882:+_ENSG00000119203_ENST00000238112|hu_mus|hu_hu_hu_mus_False|18_88 (ssRNA)
# RNA: GGGAGUUCUACAGUCCGACGAUCACUUGUCUUCUGAAGGAACCAGGGCAGAGCUCCACAGUGAUCCAAAUGGAAAUGACUGAUCAACAGAAGGUCGAUCUCAGCUGGGUCGAUAAGAUCAAUAUAAGGAAGGGCAUCCAUUCCCAACAGAGGAUUGAGCAUCA
# B5: 43694062_43694182_1162_3pUTR_ENSMUSG00000078716_ENSMUST00000107866|mouse|control|control (ssRNA)
# RNA: GGGAGUUCUACAGUCCGACGAUCUAACCGCACACAGAGCUGGAAGCUGAUGGUCCUGCCAGGACCACGGGAUGGCGUCUCCACACGCACAUAGACCCAGUGGCCCCAGGGGGGCAAGGCCAACUCCAGCUGGCAUACUGAGGCCAACAGAGGAUUGAGCAUCA
# B6: chr6:40197388:40197389:+_ENSMUSG00000057716_ENSMUST00000061740|mus_mus|motif|central (ssRNA)
# RNA: GGGAGUUCUACAGUCCGACGAUCGCCUUGUCAGUUUGGAUGGCACCUCAGUUUGGGUGCUAGCCUCUAAGAUAGAUAGCGGUUUUGGGAUUCAUGGCCUUGAAGAUCAAGAGGAAAGGGACGAGAAUGGAAAGAGUCAAGAGUCAACAGAGGAUUGAGCAUCA
# B7: chr18:34657717:34657718:-_ENSMUSG00000036501_ENSMUST00000040506|mus_hu|FALSE|FALSE (ssRNA)
# RNA: GGGAGUUCUACAGUCCGACGAUCUCAUUGUCUGGAUGUCCUCCCUGCUGCAGCUCAUCAAGUGGAAUUCCAAAUAUUUUGUUAGCAAGAACGGAGUUGCAGUUACUCAAGGAAGGGGAGGAGCUCUUCCUCAUAUCUUUUUUGCAACAGAGGAUUGAGCAUCA
# B8: chr1:66463027:66463028:+_ENSMUSG00000015222_ENSMUST00000114013|mus_mus|mus_mus_mus_hu_True|38_38 (ssRNA)
# RNA: GGGAGUUCUACAGUCCGACGAUCUUUUCUUUCAGGAGUGGAAAUUCUGCCUCUCCCGGUUUUAAAAGGCUUUUCUUUUCUAUGUUUCUCAAGAGAUGGUCUCCGAGCUUCCUUUUCAGCUUUCUCCUCUUUAGGAAUAGUUUCCAACAGAGGAUUGAGCAUCA
# B9: chr7:149068622:149068623:-_ENSMUSG00000025139_ENSMUST00000001950|mus_hu|mus_mus_mus_hu_False|78_98 (ssRNA)
# RNA: GGGAGUUCUACAGUCCGACGAUCGUGAGGCCUCUGAGUGAGGUUCCUGGUCUGUCCUGUCUGCAGUUUGUUAAUAUCACGGAACAUACCAUCUAGAACGUUCCAGUCCCGCCUGACACCUUCAUUCCCAAUGGAGAAGAAAUCCAACAGAGGAUUGAGCAUCA
# B10: 56886060_56886180_9655_3pUTR_ENSMUSG00000055296_ENSMUST00000068792|mouse|control|control (ssRNA)
# RNA: GGGAGUUCUACAGUCCGACGAUCUUUCAGUGAUGUAAGCUGAAUAAACCCUUUCCUCCCCAGCUGCUUCUUGGUCAUGAUGUUUGUGCAGGAAUAGAAACCCUGACUAAGACAGAUUGGUACCAGGAAUGGGGUAUUCCUGUGCAACAGAGGAUUGAGCAUCA
# B11: chr1:220276048:220276049:+_ENSG00000067704_ENST00000302637|hu_hu|hu_hu_hu_mus_True|38_38 (ssRNA)
# RNA: GGGAGUUCUACAGUCCGACGAUCGCAAAUUGCCUGGUUGGCGGGAAUUGUCCAAGGCUGGGUGGUCCAAACUAAAACGCUAACAGGGGAUGAGGCAUCUAUAAGAGACUCCAACUUCGGAGGAGGUCUCAGGAGGGGGAAUCUCAACAGAGGAUUGAGCAUCA
# B12: 89108257_89109511_2190_CDS_ENSMUSG00000069539_ENSMUST00000174252|mouse|control|control (ssRNA)
# RNA: GGGAGUUCUACAGUCCGACGAUCACUUAGAAGGUCCGCUCCAAUGUUGUUAAAGACCUUAUCAAUCUGCUGACUUCCAGAAUGUGCAACUUUUGUCUCCUCAGAAGUGCUCAUUUGAUUCCCUAUGUCCAAAGACCUCUGCUGCAACAGAGGAUUGAGCAUCA
# B13: chr1:39494564:39494565:+_ENSG00000168653_ENST00000372967|hu_hu|hu_hu_hu_mus_True|8_18 (ssRNA)
# RNA: GGGAGUUCUACAGUCCGACGAUCAUGCAUUCGCCUCAUCGUUUUGUACCGAAGCAAGCACUCUUCGAAGUCAUCGAACUCUAUCUUGCACUCCUUUUUCGCCCGGGUCCCACCGAUUCCAUGUGCACAUUCUAUCCACUCUUUCAACAGAGGAUUGAGCAUCA
# B14: chr4:57314706:57314707:+_ENSG00000128050_ENST00000264221|hu_mus|hu_hu_hu_mus_True|1_58 (ssRNA)
# RNA: GGGAGUUCUACAGUCCGACGAUCCAGAAUUUCAAAAAUAGCUUGUGUGGCAUGACUCAUGAUGUCCACUUCAGUCUGGCCUAUAAGAAGGCCAGCAAAACAGAAUUUUGCAGCAAUGAGUUGCUCCUCAGACCACUGUGGGUCCAACAGAGGAUUGAGCAUCA
# B15: chr7:118215947:118215948:-_ENSMUSG00000005610_ENSMUST00000162415|mus_hu|motif|central (ssRNA)
# RNA: GGGAGUUCUACAGUCCGACGAUCGGUCCUUGCAAUAGACUGCCUCUGCUUGAGAACUUAUGAUGUAAUUAUUGCAUGCUGCGGAUAUACUAUCUAAACAUUAAAGAUACUCCUAAAAUAUUUGAUGGUAGACUAUGAUUAAGACAACAGAGGAUUGAGCAUCA
# B16: chr7:30889366:30889367:+_ENSMUSG00000049421_ENSMUST00000108200|mus_mus|FALSE|FALSE (ssRNA)
# RNA: GGGAGUUCUACAGUCCGACGAUCUGUCUGUGCCCAGGGGAAAUAAUUGUUUUCUAGGUUUCCUGAAUUUGUUUUUUAGUCUAUCUCUCUACAGAAAGCUGAGACUUAACUCACACGUCUUUCAUCCUGUGUCCUUAUCUGUGUCAACAGAGGAUUGAGCAUCA
# B17: chr5:52541547:52541548:-_ENSMUSG00000029169_ENSMUST00000031061|mus_hu|motif|central (ssRNA)
# RNA: GGGAGUUCUACAGUCCGACGAUCUACUGAGACAGAAGAUUGUGUCUACAUAAGCACAAGUUGUAACAUUUCACAACUUCGGAAAGGAAUGUCAACAAUUACAACGAUCAUGCAUACCAUGGUCGAUAAUCACAUUUUAGAAGCCAACAGAGGAUUGAGCAUCA
# B18: chr3:57561359:57561360:-_ENSG00000168374_ENST00000303436|hu_hu|FALSE|FALSE (ssRNA)
# RNA: GGGAGUUCUACAGUCCGACGAUCUUUAUCUGUCAUUUCACUGAUGGCCAUAGCAUUUGGCAAAUCCUGUUUGUUUGCAAAAAGUAGCAGCACUGCAUCUCUCAAUUCAUCUACCAGAAGCAUUUUCUGCAGCUCAUCUGCUACCAACAGAGGAUUGAGCAUCA
# B19: chr2:179515052:179515053:+_ENSMUSG00000000305_ENSMUST00000000314|mus_hu|mus_mus_mus_hu_False|1_108 (ssRNA)
# RNA: GGGAGUUCUACAGUCCGACGAUCGCUUUCCCGCGCAGUCACCGUGAACGCCACCUGCUCGGAGGGGACCUGCAGCUCCCGGGUGGCGAAGACUGUCCCAUCUGCCCCAACUUUGAAGUCCAUGCUGUUGGUCUCAUACUGCAUCAACAGAGGAUUGAGCAUCA
# B20: chr7:141438946:141438947:+_ENSG00000106028_ENST00000265304|hu_mus|hu_hu_hu_mus_True|18_28 (ssRNA)
# RNA: GGGAGUUCUACAGUCCGACGAUCGACGAAAUACCUGUAACACAGGUCUUCGAAACAUGGCUUCUGUUUUUCUUACAACCUAAUCUUUAGGCUUUUCCUAAAGGAAAAACCCGAGCAGCCCAGCCACUAAAUCAAGAAACUACACAACAGAGGAUUGAGCAUCA
# B21: chr7:65705844:65705845:+_ENSG00000169902_ENST00000304842|hu_mus|hu_hu_hu_mus_False|8_58 (ssRNA)
# RNA: GGGAGUUCUACAGUCCGACGAUCAAACGGAUCUUUGUUACAUAAAUAAGGUGCCGGCUCCCCAUGUUUAACAAUGAUUUCUAGUAAGAAGGCUUGCAUGGCAGAAUCUAGCACUUCAUCUGUGACACCAGCCUCAUCCAAGCGCAACAGAGGAUUGAGCAUCA
# B22: chr10:33190432:33190433:-_ENSG00000150093_ENST00000302278|hu_mus|hu_hu_hu_mus_True|38_68 (ssRNA)
# RNA: GGGAGUUCUACAGUCCGACGAUCUACAUUUUCCAAACCUGCAUGUGAAUAAAACCCUGGCCACAGAGCCCUAAAGCUACCCUACUGUGACUAAGAUAAUUGCUACUUGAGCUUGGUGUUGCAAAAUCCGCCUGAGUAGGAUUCCAACAGAGGAUUGAGCAUCA
# Molecular target: T1, UNK ZnF1-3
# Test: nsRBNS (natural sequence RNA bind-n-seq); RBNS binding buffer (assumed for nsRBNS): 25 mM Tris pH 7.5, 150 mM KCl, 3 mM MgCl2, 0.01% Triton X-100, 500 ug/ml BSA, 20 U/ml SUPERase-In, 4 C; UNK is unkempt and MSI1 is Musashi-1; names of the RNAs are library labels; protein concentration not given here; high values mean tight binding
row,Binder,binding signal
1,B1,1.38 enrichment R
2,B2,0.579 enrichment R
3,B3,0.887 enrichment R
4,B4,1.24 enrichment R
5,B5,0.498 enrichment R
6,B6,1.43 enrichment R
7,B7,0.734 enrichment R
8,B8,0.409 enrichment R
9,B9,0.724 enrichment R
10,B10,0.846 enrichment R
11,B11,2.07 enrichment R
12,B12,0.661 enrichment R
13,B13,0.588 enrichment R
14,B14,0.694 enrichment R
15,B15,0.896 enrichment R
16,B16,0.487 enrichment R
17,B17,1.06 enrichment R
18,B18,0.674 enrichment R
19,B19,0.785 enrichment R
20,B20,0.656 enrichment R
21,B21,0.878 enrichment R
22,B22,0.744 enrichment R
